# Assay results taken from PubChem BioAssay AID1768 (National Center for Advancing Translational Sciences (NCATS), 2009).
# Screen size: about 270,000 compounds; about 620 (0.23%) were called active. Inconclusive means that the source gave no clear call. Such entries were picked first, then a sample of the others. Calls follow the shape of the dose curve; as a rule, active = well fitted inhibition curve with a large enough effect in the polarisation, with a control signal flat (not every such curve was filed as active); inconclusive = small, poorly fitted or top-dose-only effect, or effect the other way, or a change in a side signal; inactive = no such curve, though single readings can be large or run the other way; the % refers to the polarisation. Potencies beside an inconclusive call are fits to weak or partial responses and may not hold up. A note “side channel” means that the fit belongs to a control or component signal, not to the main read-out.
# Molecular target: Menin (Homo sapiens) (UniProt O00255)
# UniProt O00255, sequence (O00255 whole entry, looked up): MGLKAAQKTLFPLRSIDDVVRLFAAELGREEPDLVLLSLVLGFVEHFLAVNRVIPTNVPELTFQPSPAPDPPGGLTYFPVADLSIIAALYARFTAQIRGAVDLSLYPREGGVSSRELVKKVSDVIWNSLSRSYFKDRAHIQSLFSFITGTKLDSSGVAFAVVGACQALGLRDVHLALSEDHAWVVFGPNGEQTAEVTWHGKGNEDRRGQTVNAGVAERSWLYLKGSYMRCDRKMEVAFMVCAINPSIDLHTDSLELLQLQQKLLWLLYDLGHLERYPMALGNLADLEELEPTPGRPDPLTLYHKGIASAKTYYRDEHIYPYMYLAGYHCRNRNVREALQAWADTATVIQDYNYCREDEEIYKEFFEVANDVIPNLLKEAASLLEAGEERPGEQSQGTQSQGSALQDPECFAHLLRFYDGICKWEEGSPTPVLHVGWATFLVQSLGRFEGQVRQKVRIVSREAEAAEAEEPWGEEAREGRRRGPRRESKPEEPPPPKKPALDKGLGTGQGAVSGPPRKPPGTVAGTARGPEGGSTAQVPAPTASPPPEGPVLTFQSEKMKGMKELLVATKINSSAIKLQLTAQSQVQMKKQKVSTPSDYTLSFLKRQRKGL
# Experiment: qHTS Assay for Inhibitors Targeting the Menin-MLL Interaction in MLL Related Leukemias: Competition With Texas Red Labeled MLL-derived Mutant Peptide; as to FP activity change, negative = inhibition: % of control where 0% means no effect
# Details: fluorescence polarization; FP activity change, negative = inhibition: at 61.6 µM (top of the series)
# Potency is read from the fitted curve at half-maximal effect; tags tell the direction and shape of the fitted curve or compound fluorescence and quenching.
SMILES,Potency,"FP activity change, negative = inhibition"
O=C(COc1ccc(Cl)cc1Cl)Nc1nnc(C2=COCCO2)o1,"inconclusive: 39.8 µM [quencher, side channel, single point]",–
Cc1cc(C)nc(N(C#N)CCOc2ccccc2)n1,–,inactive: -8.73%
CCN(CC)S(=O)(=O)c1ccc2oc(Nc3ccc(OC)cc3)nc2c1,"inconclusive: 14.1 µM [quencher, side channel, partial curve]",–
OC(Cn1cncn1)(c1ccc(F)cc1)c1ccc(Cl)cc1 (stereo not drawn),–,inactive: -5.73%
CN(C)S(=O)(=O)Oc1cccc(C(=O)Nc2cccc(Cl)c2)c1,"inconclusive: 28.2 µM [quencher, side channel, partial curve]",–
O=C1NCC(c2ccccc2)C1C(=O)N/N=C/c1ccc(Cl)s1 (stereo not drawn),"inconclusive: 20 µM [fluorescent, side channel, partial curve]",–
Cc1cc(C)nc(/N=C(\N)Nc2ccc(OCCC(C)C)cc2)n1,"inconclusive: 8.91 µM [fluorescent, side channel, partial curve]",–
O=C(COc1ccc(/C=N/NC(=O)c2ccccc2)cc1)Nc1ccc([N+](=O)[O-])cc1,"inconclusive: 12.6 µM [quencher, side channel, partial curve]",–
CCOC(=O)c1c(C)oc2c1c(C=NCC1CCCO1)c(O)c1ccccc12 (stereo not drawn),"inconclusive: 2.51 µM [inhibitor, full curve, poor fit]",–
CCN(CC)c1ccc(/C=N/NC(=O)c2c[nH]c3ccccc23)cc1,"inconclusive: 12.6 µM [quencher, side channel, partial curve]",–
CCCCC[C@H](O)/C=C/C=C\C/C=C\C/C=C\CCCC(=O)O,–,inactive: 2.24%
CC(C)N(C(=O)Cn1cc(S(=O)(=O)CC(=O)NC2CCCCC2)c2ccccc21)C(C)C,"inconclusive: 20 µM [fluorescent, side channel, partial curve]",–
CCCNC(=O)NC(=O)CSc1nc2ccccc2n1CC(C)C,"inconclusive: 7.08 µM [fluorescent, side channel, full curve, poor fit]",–
CCOc1ccc(NC(=O)CN2CCN(CC(=O)c3ccc(OCC)cc3)CC2)cc1,–,inactive: -13.7%
COc1ccc(NC(=O)c2ccc3c(SCC(=O)O)c4c(nc3c2)CCCC4)c(OC)c1,"inconclusive: 39.8 µM [quencher, side channel, single point]",–
CCc1cccc(NS(=O)(=O)c2ccc(-n3cccn3)cc2)c1,"inconclusive: 28.2 µM [quencher, side channel, single point]",–
COc1cc(/C=N/N=C2/NC(=O)C(Cc3ccc(F)cc3)S2)ccc1O (stereo not drawn),"inconclusive: 35.5 µM [quencher, side channel, single point]",–
CCN(CC)CCCNC(=O)CCn1nc(-c2ccccc2)ccc1=O,"inconclusive: 10 µM [inhibitor, partial curve]",–
Cc1cc2cc(CNC(=O)c3ccc(S(=O)(=O)N4CCOCC4)cc3)ccc2n1C,"inconclusive: 35.5 µM [fluorescent, side channel, partial curve]",–
O=C(NC1CCN(S(=O)(=O)c2cccc([N+](=O)[O-])c2)CC1)C1CCCCC1,"inconclusive: 31.6 µM [quencher, single point]",–
CC[C@H](C)[C@H](NC(=O)[C@H](CC(=O)O)NC(=O)[C@H](CC(C)C)NC(=O)[C@H](Cc1cnc[nH]1)NC(=O)[C@H](C)NC(=O)[C@H](Cc1ccccc1)NC(=O)[C@H](Cc1ccc(O)cc1)NC(=O)[C@@H](NC(=O)[C@H](C)NC(=O)[C@H](CCC(=O)O)NC(=O)[C@H](CCC(=O)O)NC(=O)[C@H](CC(=O)O)NC(=O)CCC(=O)O)C(C)C)C(=O)N[C@H](C(=O)N[C@@H](Cc1c[nH]c2ccccc12)C(=O)O)[C@@H](C)CC,–,inactive: -3.27%
O=C(CCn1c(=O)c2ccccc2n(Cc2cccnc2)c1=O)NCc1ccc2c(c1)OCO2,"inconclusive: 44.7 µM [inhibitor, single point]",–
Cc1ccc2c(c1)c(CC(=O)Nc1ccc(C)c(F)c1)c(C(=O)O)n2C,"inconclusive: 15.8 µM [quencher, side channel, partial curve]",–
C=C1c2c(Cl)ccc(O)c2C(O)=C2C(=O)[C@]3(O)C(O)=C(C(N)=O)C(=O)C(N(C)C)C3C(O)C12 (stereo partly drawn),"inconclusive: 25.1 µM [quencher, side channel, single point]",–
CC1CCN(c2ccc(NC(=O)c3ccccc3[N+](=O)[O-])cc2)CC1,"inconclusive: 17.8 µM [quencher, side channel, partial curve]",–
Cc1snc2sc(C(=O)c3ccc(Br)cc3)c(N)c12,"inconclusive: 12.6 µM [quencher, side channel, partial curve]",–
Cc1cc(O)c2c(c1O)C(=O)C(O)=C(O)C2=O,"inconclusive: 39.8 µM [quencher, side channel, single point]",–

SMILES,Potency,"FP activity change, negative = inhibition"
Cc1c(CC(=O)NC(C)C)c(=O)oc2cc3c(cc12)CCC(C)(C)O3,"inconclusive: 31.6 µM [inhibitor, single point]",–
COc1cccc2sc(N(CCCN(C)C)C(=O)C(c3ccccc3)c3ccccc3)nc12,"inconclusive: 35.5 µM [inhibitor, partial curve]",–
CCOc1ccc2[nH]c(=O)c(CN(Cc3ccc(C)cc3)C(=O)N3CCCC3)cc2c1,–,inactive: -9.85%
Cc1cc(C)c(O)c(-c2cc(C(=O)Nc3ccc(S(=O)(=O)N4CCOCC4)cc3)[nH]n2)c1,"inconclusive: 3.16 µM [quencher, side channel, full curve]",–
COCCn1c(=O)c(C)nc2cnc(Oc3cccc(Cl)c3)nc21,–,inactive: -6.56%
CCOC(=O)c1sc(NC(=O)Cc2ccc(F)cc2)nc1C,"inconclusive: 31.6 µM [inhibitor, single point]",–
Brc1ccc(C2=CC(c3cccs3)n3ncnc3N2)cc1 (stereo not drawn),"inconclusive: 22.4 µM [quencher, side channel, single point]",–
CCN(Cc1ccccc1)S(=O)(=O)c1cc(C(=O)OC)n(C)c1,"inconclusive: 3.98 µM [inhibitor, full curve]",–
O=C(/C=C/c1ccc(N2CCC(c3ccccc3)=N2)cc1)c1ccccc1,"inconclusive: 3.55 µM [fluorescent, side channel, partial curve]",–
CCCCCc1nnc(NC(=O)Cc2ccc([N+](=O)[O-])cc2)s1,"inconclusive: 31.6 µM [quencher, side channel, single point]",–
COc1ccc2oc(C(=O)OCC(=O)/C(C#N)=C(\C)N)c(C)c2c1,"inconclusive: 39.8 µM [fluorescent, side channel, single point]",–
COc1cc(/C=C/c2nc(-c3ccccc3O)n[nH]2)cc(OC)c1OC,"inconclusive: 12.6 µM [quencher, side channel, partial curve]",–
O=C(NCc1cn(-c2ccccc2)nc1-c1ccccc1)c1cc([N+](=O)[O-])cc([N+](=O)[O-])c1,"inconclusive: 10 µM [quencher, side channel, partial curve]",–
CCN1CCCC1CN(Cc1cc2ccc(C)cc2[nH]c1=O)C(=S)Nc1ccccc1C(=O)OC (stereo not drawn),"inconclusive: 2.51 µM [fluorescent, side channel, full curve]",–
O=C(NCc1ccccn1)c1cccc(NS(=O)(=O)c2ccccc2F)c1,"inconclusive: 0.631 µM [inhibitor, full curve, poor fit]",–
O=C(NC(=S)Nc1ccc2c(c1)OCCO2)c1cccc2ccccc12,"inconclusive: 39.8 µM [inhibitor, single point]",–
CSCC[C@H](NC(=O)[C@H](CC(C)C)NC(=O)CNC(=O)[C@@H]1CCCN1C(=O)[C@H](Cc1ccccc1)NC(=O)[C@H](Cc1ccccc1)NC(=O)[C@H](CC(=O)O)NC(=O)[C@H](Cc1cnc[nH]1)NC(=O)[C@H](CCSC)NC(=O)[C@@H](N)CC(=O)O)C(N)=O,–,inactive: 5.77%
CN[C@@H](CCCN=C(N)N)C(=O)N[C@@H](CCCCN)C(=O)N1CCC[C@H]1C(=O)N[C@@H](Cc1c[nH]c2ccccc12)C(=O)N[C@H](C(=O)N[C@H](CC(C)C)C(=O)O)C(C)(C)C,"inconclusive: 0.708 µM [inhibitor, full curve]",–
Cc1ccc(S(=O)(=O)CC(CN2CCCCC2)N2CCCCC2)cc1 (stereo not drawn),"inconclusive: 11.2 µM [inhibitor, partial curve]",–
CCc1ccc(NC(=O)C(NS(=O)(=O)c2cccc3nsnc23)c2ccccc2)cc1 (stereo not drawn),"inconclusive: 5.01 µM [quencher, side channel, full curve]",–
CCOC(=O)N1CCC(NC(=O)CSCc2cnn(-c3ccccc3)c2-n2cccc2)CC1,"inconclusive: 10 µM [fluorescent, side channel, partial curve]",–
COc1ccc(C2CC(C(F)(F)F)n3nc(C(=O)NCc4cn(C)nc4C)c(Cl)c3N2)cc1 (stereo not drawn),"inconclusive: 4.47 µM [inhibitor, single point]",–
CCOc1ccccc1Nc1ccc2nonc2c1[N+](=O)[O-],"inconclusive: 39.8 µM [quencher, single point]",–
O=C(O)c1cc(S(=O)(=O)NC2CCCc3ccccc32)ccc1O (stereo not drawn),"inconclusive: 39.8 µM [quencher, side channel, single point]",–
CCc1ccc2nc3n[nH]c(N)c3cc2c1,"inconclusive: 10 µM [inhibitor, partial curve]",–
O=C(CS(=O)c1ccc(C(F)(F)F)cc1[N+](=O)[O-])Oc1ccccc1 (stereo not drawn),"inconclusive: 14.1 µM [quencher, side channel, partial curve]",–
